Results: the supplement of paper PMC12645437, “Orthogonal IMiD-Degron Pairs Induce Selective Protein Degradation in Cells” (ACS Chemical Biology, 2025)
The list shows a part of the results.

Target: no compound (DMSO)
Test: log2 fold change of degron read counts, EGFP-low vs EGFP+ sorted cells; higher = lower degron-EGFP level without compound (poor expression or instability)
Conditions: compound: DMSO control; 18 h
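Further: jurkat cells carrying a lentiviral library of mutant zinc finger degrons fused to EGFP plus mCherry, mCherry+ cells FACS sorted, degron abundance counted by next-generation sequencing.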

Sequence | log2 fold change of degron read counts
FHCSVCGHFFTQKGNLLRHIKL | 0.882
FFCEQCGAGFTQKGNLLRHIKL | -1.18
FICEICGHAFTQKGNLLRHIKL | -2.28
FMCPQCGAAFTQKGNLLRHIKL | -0.747
FECDVCGAYFTQKGNLLRHIKL | -1.31
FYCNQCGHQFTQKGNLLRHIKL | 0.244
FACPQCGASFTQKGNLLRHIKL | -3.94
FYCEICGHCFTQKGNLLRHIKL | -0.305
FHCPICGRDFTQKGNLLRHIKL | -0.573
FICNQCGRTFTQKGNLLRHIKL | -1.1
FWCDQCGAFFTQKGNLLRHIKL | 0.866
FHCSVCGHLFTQKGNLLRHIKL | 0.443
FICDVCGASFTQKGNLLRHIKL | -2
FSCNVCGARFTQKGNLLRHIKL | -0.245
LNCEICGFICTQKGNLLRHIKL | 0.966
FHCPQCGAFFTQKGNLLRHIKL | 0.26

Sequence | log2 fold change of degron read counts
FTCDQCGARFTQKGNLLRHIKL | -1.19
FYCNICGAIFTQKGNLLRHIKL | 0.756
FCCEVCGASFTQKGNLLRHIKL | -2.84
FWCEICGAPFTQKGNLLRHIKL | 0.0185
FRCPICGHGFTQKGNLLRHIKL | 0.494
FDCEICGHPFTQKGNLLRHIKL | -0.401
FVCPVCGADFTQKGNLLRHIKL | -0.48
FHCNICGAEFTQKGNLLRHIKL | -1.48
LICPICGFLCTQKGNLLRHIKL | 1.86
FSCNQCGAVFTQKGNLLRHIKL | -0.902
FNCPVCGATFTQKGNLLRHIKL | -0.691
FGCPVCGAKFTQKGNLLRHIKL | -0.48
FICPICGRTFTQKGNLLRHIKL | 0.077
FTCPQCGAMFTQKGNLLRHIKL | -0.407
FECEVCGARFTQKGNLLRHIKL | -0.858
LHCPICGFHCTQKGNLLRHIKL | 1.44
